Assay results: PubChem BioAssay AID1963576 (National Center for Advancing Translational Sciences (NCATS), 2024)
The campaign covered roughly 46,000 compounds. About 60 (0.1%) were called active. Roughly 3% stayed inconclusive and do not appear here. Calls follow the shape of the dose curve; as a rule, active = well fitted inhibition curve with a large enough effect; inconclusive = small, poorly fitted or top-dose-only effect; inactive = no such curve, though single readings can be large or run the other way. The list shows a part of the results.

test: Primary qHTS assay for Inhibitors of ovarian cancer metastasis using an organotypic tumor microenvironment (TME) model.; also: nearly all actives have a fitted effect of over 65% in size;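 as to activity change, negative = inhibition: plate controls were DMSO wells for no effect and tomatine positive control wells for full effect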; conditions: SKOV3ip1-GFP adhesion/invasion on 3D omental model, fluorescence; series mostly up to 45.8 µM; activity change, negative = inhibition: at the top concentration
Summary of the method: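 qHTS, 4-pt dose (0.36-46 umol/L); SKOV3ip1-GFP, 1,200 cells/well, no FBS; primary omental fibroblast/mesothelial co-culture 48 h pre-grown; 2 h RT + 16 h 37 C; PBS wash, 4% PFA; GFP count 488/509 nm.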

Activity change, negative = inhibition, inactive:
CCc1cnc2c(c1SCC(=O)Nc1ccc(Cl)cc1)c(=O)n(C)c(=O)n2C -7.52%, O=C(NCC(c1ccc2c(c1)OCO2)N1CCOCC1)c1ccccc1F (centres undefined) -0.551%, CCc1ccc(CNC(=O)CCc2c(C)nn(-c3ccc(N4CCCCC4)nn3)c2C)cc1 8.64%, Cc1cccn2cc(-c3cccc(NS(=O)(=O)c4ccc(Cl)c(Cl)c4)c3)nc12 7.77%, O=C(NCc1ccccc1)c1nnc(Cc2cccc(F)c2)o1 10%, CCc1ccc2occ(CC(=O)Nc3c(C(=O)Nc4ccc(OC)cc4)oc4ccccc34)c2c1 5.24%, COc1ccc(C2c3cccn3CCN2S(=O)(=O)c2ccccc2[N+](=O)[O-])cc1OC (centres undefined) -8.41%, CCOC(=O)c1c(C)oc2nc(C)nc(NCC3CCN(Cc4cccc(C)c4)CC3)c12 -18.5%, Cc1ccc(NC(=O)CSc2nc3ccc(NC(=O)c4cccs4)cc3s2)c(C)c1 -1.71%, COc1cccc(Cn2c(=O)n(-c3cccc(Cl)c3C)c(=O)c3c4c(sc32)CN(C(C)=O)CC4)c1 -3.62%, CCn1c(CNC(=O)c2ccc(OC)cc2)nnc1SCC(=O)Nc1cccc(C)c1C 5.4%, CCOc1ccc(-c2nnc(SCC(=O)NCc3ccc(C)cc3)nc2-c2ccc(OCC)c(OC)c2)cc1OC 0.425%, CCOc1ccc(NC(=O)CSC2=Nc3ccccc3C3=NC(CCC(=O)NCc4cccs4)C(=O)N23)cc1 (centres undefined) 12.1%, COc1ccc2c(c1)c1c(c(=O)n(-c3cccc(Cl)c3)c(=O)n1CC(=O)NCC1CCCO1)n2C (centres undefined) 43.8%, Cc1nn(-c2ccccc2)c(OC(=O)c2ccccc2Cl)c1S(=O)(=O)c1ccccc1 -16.9%, CCOc1ccc(-n2cc(-c3ccccc3)c3c(NC4CCCCC4)ncnc32)cc1 -17.8%, CCOC(=O)c1[nH]c(C)c(CCC(=O)Nc2cccc(C(F)(F)F)c2)c1C 2.57%, CC(CNC(=O)c1nnc(Cc2cccc(F)c2)o1)c1ccccc1 (centres undefined) -2.98%, COc1cc(CNCCSc2nnnn2C)ccc1OCc1ccc(F)cc1 9.54%, CCc1nn2c(=O)cc(COC(=O)c3ccccc3NC(=O)COc3ccc(F)cc3)nc2s1 -3.43%, COCCNC(=O)Cn1cnc2sc(C)c(S(=O)(=O)N3CCN(c4ccccc4OC)CC3)c2c1=O -6.91%, COc1ccccc1C(=O)NCCSc1c(C)[nH]c2ccccc12 -11.3%, CC(=O)c1cccc(NC(=O)[C@H](Cc2ccccc2)N2Cc3ccccc3C2=O)c1 -20.3%, CCC(NC(=O)Nc1ccc(OC)c(OC)c1)c1c(-n2cccc2)sc2c1CCN(C)C2 (centres undefined) 4.35%, COc1ccc(N2CC(NC(=O)C3CC3)CC2=O)cc1 (centres undefined) -12%, COc1ccc(-c2nc3ccccc3o2)cc1NC(=O)C(C)(C)Oc1ccc(Br)cc1 -2.47%, Cc1cccc(NC(=O)C2CCCN(S(=O)(=O)c3c(C)[nH]c(=O)[nH]c3=O)C2)c1C (centres undefined) -26.5%, COc1ccc(CCNC(=O)c2ccc3c(c2)N=C(C)c2cc(C)ccc2S3)cc1OC -26.2%, COc1cccc(NC(=O)CSc2nc(=O)n(Cc3ccccn3)c3c2CCC3)c1 0.236%, O=c1oc2ccc3ccccc3c2cc1-c1nnc(Nc2ccc(Cl)cc2Cl)s1 -1.11%, COc1cccc(N2CCN(C(=O)CCS(=O)(=O)c3ccc4c(c3)CC(=O)N4C)CC2)c1 1.64%, COc1ccc2cc([S+]([O-])Cc3ncc(C)c(OC)c3C)nc2c1 -5.18%, Cc1ccc(NC(=O)c2cn3c4c(ccc(Cl)c4c2=O)OC(C)C3)cc1C (centres undefined) -8.61%, CCOc1cc2sc(N3CCC(C(=O)Nc4ccccc4C(=O)OC)CC3)nc2cc1Br 5.68%, O=C(C1CCC(CNS(=O)(=O)c2ccc(Br)s2)CC1)N1CCN(c2ccccc2Cl)CC1 (centres undefined) 1.29%, COc1ccc(NC(=O)Cn2c(=O)n(-c3cccc(C)c3)c(=O)c3c2c2cc(C)ccc2n3C)cc1Cl 0.326%, Cc1ncc(CO)c2c1Oc1nc(-c3ccccc3)nc(SCC(=O)N3CCCCC3)c1C2 6.67%, O=C(NCc1ccccc1)[C@H](Cc1ccccc1)NC(=O)[C@@H]1O[C@@H]1C(=O)NCCc1ccc(O)cc1 -4.96%, Cc1ccc(CNC(=O)C2CCN(S(=O)(=O)Cc3ccccc3)CC2)cc1 4.89%, CN(C)c1ccc(CNC(=O)C2CCCN(S(=O)(=O)c3ccc4c(ccn4C)c3)C2)cc1 (centres undefined) 8.31%, CCOc1ccccc1NC(=O)Cn1c(=O)oc2cc(S(=O)(=O)NCc3ccccc3)ccc21 -5.11%, Cc1nc(-c2ccc(OCC(C)C)c(C#N)c2)sc1C(=O)O -5.48%, CCOC(=O)c1cccc(NC(=O)c2cc3cc4cc(OC)ccc4nc3s2)c1 17%, CCOC(=O)c1sc(NC(=O)C(C)Oc2ccc(OC)cc2)c(C(=O)OCC)c1C (centres undefined) 22.1%, COc1ccc(C(=O)Nc2cc(-c3ccccc3)nn2-c2ccccc2)cc1 -0.356%, COc1ccc(C2N=C(N)Nc3nc4ccccc4n32)c(OC)c1OC (centres undefined) 1.93%, CC1=Nc2cc(C(=O)NCc3ccc(C)cc3)ccc2Sc2ccc(Cl)cc21 -9.64%

outcome, inactive:
CC(CNC(=O)Cn1ccc2cc(S(=O)(=O)N3CCCCC3)ccc21)c1ccccc1 (centres undefined), Cc1ccc2nc(Cl)c3cc(C(=O)N(C)C4CCCCC4)sc3c2c1, CCOc1ccc(CCNC(=O)C2CCN(C(=O)N3CC(CC)Oc4ccc(C)cc43)CC2)cc1 (centres undefined), Cc1ccc(CNC(=O)CCS(=O)(=O)c2ccc3c(c2)CC(C)N3C(=O)C2CC2)cc1 (centres undefined), CCc1ccc(NC(=O)Cn2c(=O)c(CNc3ccccc3)cc3cc(OC)c(OC)cc32)cc1, O=C(Cn1c(=O)oc2cc(S(=O)(=O)N3CCCC3)ccc21)NCc1ccc(Cl)cc1, CCOCCCNC(=O)c1cc2c(=O)n(C)c3ccccc3c2n1C, CS(=O)(=O)N1CCc2cc(C(=O)Nc3ccc(Cl)c(C(F)(F)F)c3)ccc21, CCN(CC)C(=O)Cn1c(=O)n(Cc2ccc(C(=O)NCc3ccc(C)cc3)cc2)c(=O)c2ccccc21, COc1ccc(C)cc1NC(=O)CN1C(=O)COc2ccc(S(=O)(=O)N3CCOCC3)cc21, Cc1ccc(NC(=O)COc2ccc(-c3nn(C)c(=O)c4ccccc34)cc2)cc1, O=C(COCc1cc(-c2cccs2)on1)Nc1cc(Cl)ccc1O
